Measured values from publication PMC4336329 (PLoS ONE, 2015).
Hit rate of the full screen: of about 310,000 compounds, about 14,000 (4.5%) showed an effect of 50% or more. Effects have a minus sign here. The list shows a part of the results.

Each compound was assayed against human ether-à-go-go-related gene (hERG) potassium channel (human, UniProt Q12809) (assay: primary screen, population patch clamp on CHO cells stably expressing hERG).
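Note: peak tail current of the secondary pulse compared with the same well before compound.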

Chain of human ether-à-go-go-related gene (hERG) potassium channel (Q12809 whole entry, looked up): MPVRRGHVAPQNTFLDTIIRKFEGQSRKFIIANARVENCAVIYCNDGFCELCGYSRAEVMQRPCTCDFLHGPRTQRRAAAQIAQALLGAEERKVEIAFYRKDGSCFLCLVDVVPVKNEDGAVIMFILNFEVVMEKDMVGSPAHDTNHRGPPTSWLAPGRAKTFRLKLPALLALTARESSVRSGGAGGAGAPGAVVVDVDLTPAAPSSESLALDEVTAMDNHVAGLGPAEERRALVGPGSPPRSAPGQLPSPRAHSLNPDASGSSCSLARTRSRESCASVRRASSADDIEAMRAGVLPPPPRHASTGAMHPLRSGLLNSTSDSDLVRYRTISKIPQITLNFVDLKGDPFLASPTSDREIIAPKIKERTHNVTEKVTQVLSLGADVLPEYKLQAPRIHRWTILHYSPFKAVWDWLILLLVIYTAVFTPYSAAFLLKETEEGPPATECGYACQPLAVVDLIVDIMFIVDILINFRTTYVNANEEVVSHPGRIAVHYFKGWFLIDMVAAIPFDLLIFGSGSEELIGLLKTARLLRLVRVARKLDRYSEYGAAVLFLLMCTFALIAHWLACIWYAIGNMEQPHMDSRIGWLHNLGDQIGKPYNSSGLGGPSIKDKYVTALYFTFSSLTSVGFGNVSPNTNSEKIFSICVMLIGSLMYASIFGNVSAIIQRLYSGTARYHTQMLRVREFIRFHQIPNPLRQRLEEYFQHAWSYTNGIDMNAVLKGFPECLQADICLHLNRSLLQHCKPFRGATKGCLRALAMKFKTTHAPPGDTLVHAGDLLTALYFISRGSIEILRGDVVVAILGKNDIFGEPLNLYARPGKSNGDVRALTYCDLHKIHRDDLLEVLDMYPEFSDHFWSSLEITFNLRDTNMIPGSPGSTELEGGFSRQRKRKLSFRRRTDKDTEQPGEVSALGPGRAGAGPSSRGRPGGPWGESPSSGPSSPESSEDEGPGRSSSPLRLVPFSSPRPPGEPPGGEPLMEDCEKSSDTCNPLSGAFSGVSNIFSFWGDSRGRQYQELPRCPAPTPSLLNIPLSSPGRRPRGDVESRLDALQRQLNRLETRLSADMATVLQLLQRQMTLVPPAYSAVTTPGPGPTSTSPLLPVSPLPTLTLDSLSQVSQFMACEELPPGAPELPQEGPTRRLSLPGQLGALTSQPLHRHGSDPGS

| Compound | hERG current change (%, negative = inhibition) at 10uM [%] |
| --- | --- |
| O=C(CNC(=O)c1ccccc1F)NCC(c1cccs1)N1CCOCC1 (centres unmarked) | 9.13 |
| CN(C)c1ccc(NC(=O)CCN2C(=O)c3cccc([N+](=O)[O-])c3C2=O)cc1 | 4.59 |
| Cc1ccc(/C=N/NC(=O)c2ccc3nc[nH]c3c2)s1 | 14.1 |
| O=C(C=C1NCCN1)c1ccccc1 | 12.7 |
| CCc1nnc(NS(=O)(=O)c2ccc(NC(=O)c3ccccc3)cc2)s1 | 4.95 |
| CC(C)(C)c1ccc(S(=O)(=O)Nc2ccc(C(=O)N3CCCC3)cc2)cc1 | -61.9 |
| Cc1sc(NC(=O)c2ccccc2)c(C(=O)NC(C)C)c1C | 14.6 |
| C=CCOc1ccc(/C=C\c2nc(O)c([N+](=O)[O-])c(=O)[nH]2)cc1OCC | 14.5 |
| COc1ccc(C2=NN(CCC(=O)NCC3CCCO3)C(=O)CC2)cc1 (centres unmarked) | -0.464 |
| COc1ccccc1C1CCN(Cc2cccc([N+](=O)[O-])c2)CC1 | -49.1 |
| CCC(C)(C(=O)NC1CCCC1)N(C(C)=O)c1ccc(C)cc1 (centres unmarked) | 8.72 |
| COc1ccccc1-n1ccnc1SCC(=O)NC1CCCC1 | 17.6 |
| N#Cc1ccc(OCC(=O)N2CCN(S(=O)(=O)c3ccc(Cl)s3)CC2)cc1 | -69.5 |
| C=CCN1C(=O)/C(=C/c2cccs2)C(=O)NC1=S | 33.1 |
| C#CCOCCOCCOCCNc1nc(N2CCN(C(=O)[C@H](CCCCN)n3cc([C@@H](N)C(C)CC)nn3)CC2)nc(N2CCN(C(=O)[C@H](Cc3ccc(O)cc3)n3cc([C@@H](N)C(C)CC)nn3)CC2)n1.Cl (some centres unmarked) | 15.3 |
| CC(=O)Nc1ccc(S(=O)(=O)NCCSCc2cccc(Cl)c2)cc1 | -1.43 |
| CC(C)(C)c1ccc(NC(=O)COC(=O)c2ccc(CN3CCCC3=O)cc2)cc1 | -30.1 |
| Cc1ccc(NC(=O)C(=O)c2ccc(C)cc2)cc1 | 14.6 |
| COC(=O)COc1cccc2c(=O)n(CC(=O)N3CCCCC3)ccc12 | 0.72 |

| Compound | hERG current change (%, negative = inhibition) at 10uM [%] |
| --- | --- |
| CCOC(=O)C(C)On1c(SC(C)C(=O)OCC)nc2ccccc2c1=O (centres unmarked) | -53.5 |
| Cc1cccc(C)c1NC(=O)N1CCC(C(=O)c2ccc(F)cc2)CC1 | -22.6 |
| O=c1cc(N2CCc3ccccc32)[nH]c(=O)n1-c1ccccc1Cl | 21.8 |
| COC(=O)C1=C(CN2CCSCC2)NC(=O)NC1c1cc(C)ccc1C (centres unmarked) | 0.726 |
| CCn1cc(C(=O)N2CC=C(c3ccccc3)CC2)c(=O)c2ccc(C)nc21 | -14.6 |
| CCN(CC(=O)NCc1ccc(F)cc1)C(=O)/C=C/c1ccc(OC)cc1 | -48 |
| COc1ccc(Cc2nc(-c3ccc(-n4cccc4)cc3)no2)cc1 | 8.02 |
| O=C(Cc1cccs1)NNC(=S)NC(=O)c1ccco1 | 15.6 |
| CN1CCC(=NNC(=O)CN(c2cccc(Br)c2)S(C)(=O)=O)CC1 | 1.73 |
| OCc1c[nH]c(=S)n1CCOc1cccc(C(F)(F)F)c1 | 17.3 |
| Cc1ccc2c(c1)N(CCC(=O)NCCN1CCOCC1)C(=O)CO2 | -2.16 |
| Cc1ccccc1C(=O)OC(C)C(=O)NCc1ccc2c(c1)OCO2 (centres unmarked) | -22.4 |
| COc1ccc(S(=O)(=O)N2CCCC2)c2ccccc12 | 24.9 |
| CCN(CC)CCNC(=O)c1ccc(NC(=O)C2CCN(c3ncnc4sc(C)c(C)c34)CC2)cc1 | -29.8 |
| CC(NCc1ccccc1Cl)C(O)c1ccccc1.Cl (centres unmarked) | 4.31 |
| O=C(CC(C(=O)O)c1c(F)cccc1Cl)c1ccc(Cl)cc1 (centres unmarked) | 17.9 |
| CCOC(=O)COc1coc(CN2CCN(c3cccc(Cl)c3)CC2)cc1=O | -34.1 |
| Cc1ccc(-c2cc(=O)c3ccc(F)cc3[nH]2)cc1 | 7.84 |
| CC(C)Cn1c(CN2CCN(C)C(CCO)C2)nc2ccccc21 (centres unmarked) | 4.02 |

| Compound | hERG current change (%, negative = inhibition) at 10uM [%] |
| --- | --- |
| Br.CCC1CC(CSC(=N)N)OC1=O (centres unmarked) | -1.22 |
| O=C1C2C3C=CC(C2C(=O)N1CCO)C1C(=O)N(CCO)C(=O)C31 (centres unmarked) | 9.31 |
| CSc1ccccc1OCc1cc(C(=O)NCc2cnc(C)cn2)no1 | 2.92 |
| Cc1ccc(S(=O)(=O)N(C)C)cc1NC(=O)c1ccc2ccccc2n1 | 25.7 |
| CCN1CCN(C(=O)c2ccc3c(c2)N(Cc2ccccc2F)C(=O)c2ccccc2S3(=O)=O)CC1 | 0.702 |
| CCCn1c(SCC(=O)Nc2nnc(-c3ccccc3)s2)nnc1-c1ccccn1 | 5.96 |
| COc1cc(/C=N/N2C(C)CCCC2C)cc(Br)c1O (centres unmarked) | 5.71 |
| CCCN(CCC)C1=N/C(=C\c2ccco2)C(=O)N1c1ccccc1 | -2.4 |
| COCc1cc(C)nc(SCC(=O)Nc2cc3c(cc2C#N)OCO3)c1C#N | 9.53 |
| Cc1ccc(N2C(=O)Nc3ccccc3C2(O)C(=O)NCCCOC(C)C)cc1C (centres unmarked) | 19.7 |
| CCN(CC)C(=O)C1CCCN(c2ccc([N+](=O)[O-])cc2/C=N/NC(=O)c2ccc([N+](=O)[O-])cc2)C1 (centres unmarked) | -45 |
| Cc1cccc(-n2c(C)c(C)c3c(N)ncnc32)c1 | 8.13 |
| O=C(c1cc(Br)ccc1Cl)N1CCCC1 | 24.9 |
| COc1ccc(C(=O)N2CCC3(CC2)NCCc2[nH]cnc23)cc1 | -18.8 |
| COc1cccc(C(=O)NC2CCSC2=O)c1 (centres unmarked) | 23.8 |
| O=C(NNC1=NS(=O)(=O)c2ccccc21)c1ccc(Cl)cc1 | 23.5 |
| O=C(COC(=O)C1CCN(S(=O)(=O)c2ccc3c(c2)OCCO3)CC1)NC1CCS(=O)(=O)C1 (centres unmarked) | -9.56 |
| Cc1cc(NC(=O)COC(=O)c2c(C)nn(Cc3ccccc3)c2Cl)no1 | 1.89 |
